Our source for the binding signal (log2 fold change) values is publication PMC5892938.

Some of the results follow. The source does not settle which construct or isoform was used.

For this experiment, the target named is GST-SBP-ILF3 (Homo sapiens) (UniProt Q12906). As to the kind of experiment: targeted RNA Bind-n-Seq. Conditions: RBNS binding buffer: 25 mM Tris pH 7.5, 150 mM KCl, 3 mM MgCl2, 0.1% Tween, 0.5 mg/mL BSA, 1 mM DTT; 27 nM protein, 750 pM RNA pool; temperature not stated; high values mean tight binding; sequences stand for … in GGGUAAAAGCGAGGUGAA…CGGGACAAGUAUUAUGGG
For “UUUUUUUUUUGAGAUGGAUCCCAUCUCCGG [tttttgagapaired]”, the binding signal (log2 fold change) amounted to 0.194. For the sequence “UUUUUUUUUUGAGAUGGGAACCAUCUCCUA [tttttgagapaired]”, the binding signal (log2 fold change) was 0.198. In the case of “UUUUUUUUUUGAGACGGUUGCCGUCUCCUG [tttttgagapaired]” it was 0.739; in that of “GGUUGGUGUGUUGGACCCUAACACAUCAAC [gtspaired]”, -0.773; in that of “UUUUUUUUUUGAGACCGAGGCGGUUUCCAG [tttttgagapaired]”, 0.82.

In the case of “UUUUUUUUUUGAGACCGACACGGUUUCCUG [tttttgagapaired]”, the binding signal (log2 fold change) was 0.793.

For “UUUUUUUUUUGAGACGGCAACUGUCUCCUA [tttttgagapaired]”, the binding signal (log2 fold change) was 0.858. For the sequence “UUUUUUUUUUGAGACGGAAUCCGUUUCCGG [tttttgagapaired]”, the binding signal (log2 fold change) was 0.272. Consider “UUUUUUUUUUGAGACGGGCACCGUCUCCAG [tttttgagapaired]”, for which the binding signal (log2 fold change) stood at 0.708. The figure for “GGUGUUGGUGUUGGAUUCUAACACCAGCGC [gtspaired]” is -0.7. For “UUUUUUUUUUGAGACGGAAGCCGUCUCCGG [tttttgagapaired]”, the binding signal (log2 fold change) amounted to 0.422.

For the sequence “GUGUGUGGUGUUGGCCCCUAACACCGCGCA [gtspaired]”, the binding signal (log2 fold change) is -0.29. In the case of “UUUUUUUUUUGAGACUGCUACAGUUUCCUA [tttttgagapaired]”, the binding signal (log2 fold change) is 0.432. Turning to “UUUUUUUUUUGAGACUGGGACAGUCUCCUG [tttttgagapaired]”, the binding signal (log2 fold change) turned out to be 0.304.

“UUUUUUUUUUGAGAUGGACACUAUCUCCUA [tttttgagapaired]”: the binding signal (log2 fold change) came out at 0.324.

For the sequence “UUCCUUCUUCCUCCACGGGAGGGAGAGGGA [ctspaired]”, the binding signal (log2 fold change) was -0.425.

For the sequence “GUGUGUGGUGUUGGCACCUAACACCACAUA [gtspaired]”, the binding signal (log2 fold change) was -0.425.

As to “UUUUUUUUUUGAGACGGCAGCCGUCUUCUA [tttttgagapaired]”, the binding signal (log2 fold change) stood at 0.571. On to “GUGUGGUGUGUUGGCCCCUAACACACUACA [gtspaired]”, for which the binding signal (log2 fold change) is -0.206. For the sequence “GUGUGUGGUGUUGGAGCCUAACACCACGCG [gtspaired]”, the binding signal (log2 fold change) was -0.564. Take “UUCUCCUCUCCUCCGAGGGAGGGGAGGGGA [ctspaired]”: the binding signal (log2 fold change) is -0.743. With “UUUUUUUUUUGAGAGGGAAUCCUUCUCCAG [tttttgagapaired]”, the binding signal (log2 fold change) is -0.0906. Regarding “UUUUUUUUUUGAGAUGGCACCCAUCUCCAG [tttttgagapaired]”, the binding signal (log2 fold change) is 0.52.

Take “UUUUUUUUUUGAGACGGCGUCCGUCUCCGG [tttttgagapaired]”: the binding signal (log2 fold change) is 0.868. With “UUUUUUUUUUGAGACCGGUUCGGUCUCCUG [tttttgagapaired]”, the binding signal (log2 fold change) worked out at 0.554. As to “UUUUUUUUUUGAGACGGCUACCGUCUCCUG [tttttgagapaired]”, the binding signal (log2 fold change) is 0.392. In the case of “GGUGUGUGUGUUGGUCUCUAACACACGCGC [gtspaired]”, the binding signal (log2 fold change) was -0.244. For “GGUGUGUGUGUUGGCGCCUAACACAUAUAC [gtspaired]”, the binding signal (log2 fold change) is -0.631. In the case of “GGUGUUGGUGUUGGUUCCUAACACCAGCGC [gtspaired]” it was -0.782. With “UUUUUUUUUUGAGACGGGAACCGUCUCCAG [tttttgagapaired]”, the binding signal (log2 fold change) was -0.00745. Regarding “UUUUUUUUUUGAGAGCGUAGCGUUCUUCUA [tttttgagapaired]”, the binding signal (log2 fold change) was 0.249. Take “UUUUUUUUUUGAGACUGGGUCAGUUUCCUA [tttttgagapaired]”: the binding signal (log2 fold change) came to 0.657.

“UUUUUUUUUUGAGACUGAAUCAGUUUCCUG [tttttgagapaired]”: the binding signal (log2 fold change) was determined as 0.385.

Consider “GUUGUGUGUGUUGGCGUCUAACACACGCGA [gtspaired]”, for which the binding signal (log2 fold change) is -0.571. The figure for “UUUUUUUUUUGAGAGCGAAACGCUCUCCGG [tttttgagapaired]” is 0.0939; for “GGUGGUUGUGUUGGCUCCUAACACAGCCGC [gtspaired]” it is -0.829; for “UUUUUUUUUUGAGAUGGGGUCUAUCUCCGG [tttttgagapaired]” it is 0.358.

For “GUUGGUGGUGUUGGUCCCUAACACCGCCAG [gtspaired]”, the binding signal (log2 fold change) is -0.8. For the sequence “UUUUUUUUUUGAGAGGGCAACCCUCUUCUA [tttttgagapaired]”, the binding signal (log2 fold change) was determined as 0.302.

For “UUUUUUUUUUGAGACGGAAACCGUUUCCUA [tttttgagapaired]”, the binding signal (log2 fold change) amounted to 0.143. For the sequence “UUUUUUUUUUGAGACGGUUUCCGUCUUCUG [tttttgagapaired]”, the binding signal (log2 fold change) turned out to be 0.411. With “UUUUUUUUUUGAGACGGAAACUGUCUUCUA [tttttgagapaired]”, the binding signal (log2 fold change) is 0.607.

In the case of “GUGUGUGGUGUUGGUAUCUAACACCAUACG [gtspaired]”, the binding signal (log2 fold change) is -0.535.

Turning to “UUUUUUUUUUGAGAUCGAUACGAUCUCCUG [tttttgagapaired]”, the binding signal (log2 fold change) was determined as 0.25. In the case of “GUUGUGUGUGUUGGAAUCUAACACACGCAG [gtspaired]”, the binding signal (log2 fold change) is -0.666. In the case of “UUUUUUUUUUGAGACGGGGGCUGUCUCCGG [tttttgagapaired]” it was 0.812; in that of “UUUUUUUUUUGAGAGGGGAACCCUUUCCAG [tttttgagapaired]”, 0.186.

Turning to “UUUUUUUUUUGAGAGGGGAACCCUUUCCGG [tttttgagapaired]”, the binding signal (log2 fold change) was 0.314. On to “GGUUGUGGUGUUGGUCCCUAACACCACGAC [gtspaired]”, for which the binding signal (log2 fold change) was -0.145. Regarding “UUUUUUUUUUGAGACGGAGUCUGUUUCCAG [tttttgagapaired]”, the binding signal (log2 fold change) amounted to 0.485. Regarding “UUUUUUUUUUGAGACGGGUACCGUCUUCUA [tttttgagapaired]”, the binding signal (log2 fold change) amounted to 0.419. For “UUUUUUUUUUGAGAGCGGUACGUUCUCCUA [tttttgagapaired]”, the binding signal (log2 fold change) worked out at 0.251. “UUUUUUUUUUGAGACUGGAGCAGUUUUCUA [tttttgagapaired]”: the binding signal (log2 fold change) turned out to be 0.373.

“GGUGGUUGUGUUGGUGUCUAACACAAUCGC [gtspaired]”: the binding signal (log2 fold change) is -0.791. For the sequence “UUUUUUUUUUGAGACGGACACUGUCUUCUA [tttttgagapaired]”, the binding signal (log2 fold change) amounted to 0.468.

Take “UUUUUUUUUUGAGAGGGAGGCCCUCUCCGG [tttttgagapaired]”: the binding signal (log2 fold change) stood at 0.471. In the case of “UUUUUUUUUUGAGAGUGCGGCAUUCUCCUA [tttttgagapaired]”, the binding signal (log2 fold change) was 0.383.

For “GUGGUGUGUGUUGGAACCUAACACACAUCA [gtspaired]”, the binding signal (log2 fold change) is -0.732. For “UUUUUUUUUUGAGACGGUCCCCGUCUCCAG [tttttgagapaired]”, the binding signal (log2 fold change) is 0.852. On to “GUGGUGUGUGUUGGAAUCUAACACACGCCG [gtspaired]”, for which the binding signal (log2 fold change) is -0.385.

Regarding “UUUUUUUUUUGAGACGGGUACCGUCUUCUG [tttttgagapaired]”, the binding signal (log2 fold change) amounted to 0.589.

For the sequence “UUUUUUUUUUGAGACGGGGACCGUCUCCGG [tttttgagapaired]”, the binding signal (log2 fold change) is 0.573. On to “GUGUGUUGUGUUGGAACCUAACACAGCACA [gtspaired]”, for which the binding signal (log2 fold change) is -0.297.

Regarding “UUUUUUUUUUGAGACUGCGACAGUCUCCUG [tttttgagapaired]”, the binding signal (log2 fold change) turned out to be 0.505. With “GGUGUUGGUGUUGGCGUCUAACACCGACGC [gtspaired]”, the binding signal (log2 fold change) is -0.74. As for “UUUUUUUUUUGAGACGGAAUCCGUCUCCGG [tttttgagapaired]”, the binding signal (log2 fold change) came to 0.232. In the case of “GUGUGUGGUGUUGGUCUCUAACACCGCGCG [gtspaired]”, the binding signal (log2 fold change) is -0.83. Consider “GUGUGUUGUGUUGGCACCUAACACAGCACG [gtspaired]”, for which the binding signal (log2 fold change) is -0.729. In the case of “UUUUUUUUUUGAGAUGGGAGCUAUCUCCAG [tttttgagapaired]”, the binding signal (log2 fold change) worked out at 0.412.

Consider “UUUUUUUUUUGAGAUCGUAACGAUCUUCUG [tttttgagapaired]”, for which the binding signal (log2 fold change) amounted to 0.141. Turning to “UUUUUUUUUUGAGAGCGAGGCGCUCUCCUG [tttttgagapaired]”, the binding signal (log2 fold change) is 0.463. The figure for “GUGUGUGGUGUUGGUUCCUAACACCAUACG [gtspaired]” is -0.818. Regarding “UUUUUUUUUUGAGAGCGGGCCGCUCUCCGG [tttttgagapaired]”, the binding signal (log2 fold change) amounted to 0.726. As to “GUGUGUGGUGUUGGCGUCUAACACCGCGCA [gtspaired]”, the binding signal (log2 fold change) is -0.739. Take “UUUUUUUUUUGAGACGGUUGCCGUCUCCUA [tttttgagapaired]”: the binding signal (log2 fold change) is 0.387. The figure for “GGUGUGUGUGUUGGUACCUAACACACGCGC [gtspaired]” is -0.549. Regarding “UUUUUUUUUUGAGAACGAGUCGUUCUUCUA [tttttgagapaired]”, the binding signal (log2 fold change) is -0.0101.

Take “GGUUGUGGUGUUGGCAUCUAACACCGCGAC [gtspaired]”: the binding signal (log2 fold change) was -1.04.

“UUUUUUUUUUGAGAACGUGUCGUUCUCCAG [tttttgagapaired]”: the binding signal (log2 fold change) is 0.412.

For “UUUUUUUUUUGAGACCGCAACGGUCUCCUG [tttttgagapaired]”, the binding signal (log2 fold change) worked out at 0.275.

In the case of “GGUUGUGGUGUUGGAACCUAACACCGCAGC [gtspaired]”, the binding signal (log2 fold change) is -0.344. On to “UUUUUUUUUUGAGAGCGAGUCGUUCUUCUA [tttttgagapaired]”, for which the binding signal (log2 fold change) worked out at 0.117. As for “GUGUGUGGUGUUGGUACCUAACACCAUACA [gtspaired]”, the binding signal (log2 fold change) is -0.434. Regarding “UUUUUUUUUUGAGAGUGUAACAUUCUCCAG [tttttgagapaired]”, the binding signal (log2 fold change) is -0.0543. With “GUGUGGUGUGUUGGAACCUAACACAUCGCA [gtspaired]”, the binding signal (log2 fold change) is -0.515.

Regarding “UUUUUUUUUUGAGACCGCGGCGGUCUCCUG [tttttgagapaired]”, the binding signal (log2 fold change) turned out to be 0.867. The figure for “GUGUGUUGUGUUGGAGUCUAACACAGCACA [gtspaired]” is -0.579; for “UUUUUUUUUUGAGAUGGGCACCAUCUCCUG [tttttgagapaired]” it is 0.601; for “GUGUGGUGUGUUGGACUCUAACACAUCACG [gtspaired]” it is -0.424.

On to “UUUUUUUUUUGAGACUGUUGCAGUUUCCAG [tttttgagapaired]”, for which the binding signal (log2 fold change) is 0.507. The figure for “GUGGUGUGUGUUGGCUCCUAACACACACUA [gtspaired]” is -0.425. As to “GGUGGUGGUGUUGGCUCCUAACACCGCUAC [gtspaired]”, the binding signal (log2 fold change) was -0.4. With “UUUUUUUUUUGAGAUGGAGACCAUUUCCAG [tttttgagapaired]”, the binding signal (log2 fold change) was 0.478.

As to “GUGGUGUGUGUUGGUCUCUAACACACAUCG [gtspaired]”, the binding signal (log2 fold change) is -0.838.

In the case of “UUUUUUUUUUGAGAGCGAUACGUUCUCCUA [tttttgagapaired]”, the binding signal (log2 fold change) worked out at 0.297.

Take “UUUUUUUUUUGAGAUGGGAACCAUUUCCGG [tttttgagapaired]”: the binding signal (log2 fold change) worked out at 0.297. Consider “UUUUUUUUUUGAGAGGGGGGCCCUCUCCGG [tttttgagapaired]”, for which the binding signal (log2 fold change) amounted to 0.82. In the case of “UUUUUUUUUUGAGACGGCGACCGUCUCCAG [tttttgagapaired]” it was 0.386; in that of “UUUUUUUUUUGAGAGGGGCGCCCUCUCCAG [tttttgagapaired]”, 0.774. The figure for “UUUUUUUUUUGAGAACGAAACGUUCUUCUA [tttttgagapaired]” is -0.308. Regarding “UUUUUUUUUUGAGACCGAUUCGGUUUCCUA [tttttgagapaired]”, the binding signal (log2 fold change) came out at 0.17. In the case of “UUUUUUUUUUGAGAGGGGGACCCUCUUCUA [tttttgagapaired]” it was 0.0316; in that of “GUGUGGUGUGUUGGCGCCUAACACACUACA [gtspaired]”, -0.0887.
